The values below come from paper PMC4336329 (PLoS ONE, 2015).

Structures are written as SMILES. About 14,000 (4.5%) of roughly 310,000 compounds showed an effect of 50% or more. Effects have a minus sign here. This is one part of the list.
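Note: peak tail current of the secondary pulse compared with the same well before compound.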

This test deals with human ether-à-go-go-related gene (hERG) potassium channel (human, UniProt Q12809). Nature of the test: primary screen, population patch clamp on CHO cells stably expressing hERG.
Sequence of human ether-à-go-go-related gene (hERG) potassium channel (Q12809 whole entry, looked up): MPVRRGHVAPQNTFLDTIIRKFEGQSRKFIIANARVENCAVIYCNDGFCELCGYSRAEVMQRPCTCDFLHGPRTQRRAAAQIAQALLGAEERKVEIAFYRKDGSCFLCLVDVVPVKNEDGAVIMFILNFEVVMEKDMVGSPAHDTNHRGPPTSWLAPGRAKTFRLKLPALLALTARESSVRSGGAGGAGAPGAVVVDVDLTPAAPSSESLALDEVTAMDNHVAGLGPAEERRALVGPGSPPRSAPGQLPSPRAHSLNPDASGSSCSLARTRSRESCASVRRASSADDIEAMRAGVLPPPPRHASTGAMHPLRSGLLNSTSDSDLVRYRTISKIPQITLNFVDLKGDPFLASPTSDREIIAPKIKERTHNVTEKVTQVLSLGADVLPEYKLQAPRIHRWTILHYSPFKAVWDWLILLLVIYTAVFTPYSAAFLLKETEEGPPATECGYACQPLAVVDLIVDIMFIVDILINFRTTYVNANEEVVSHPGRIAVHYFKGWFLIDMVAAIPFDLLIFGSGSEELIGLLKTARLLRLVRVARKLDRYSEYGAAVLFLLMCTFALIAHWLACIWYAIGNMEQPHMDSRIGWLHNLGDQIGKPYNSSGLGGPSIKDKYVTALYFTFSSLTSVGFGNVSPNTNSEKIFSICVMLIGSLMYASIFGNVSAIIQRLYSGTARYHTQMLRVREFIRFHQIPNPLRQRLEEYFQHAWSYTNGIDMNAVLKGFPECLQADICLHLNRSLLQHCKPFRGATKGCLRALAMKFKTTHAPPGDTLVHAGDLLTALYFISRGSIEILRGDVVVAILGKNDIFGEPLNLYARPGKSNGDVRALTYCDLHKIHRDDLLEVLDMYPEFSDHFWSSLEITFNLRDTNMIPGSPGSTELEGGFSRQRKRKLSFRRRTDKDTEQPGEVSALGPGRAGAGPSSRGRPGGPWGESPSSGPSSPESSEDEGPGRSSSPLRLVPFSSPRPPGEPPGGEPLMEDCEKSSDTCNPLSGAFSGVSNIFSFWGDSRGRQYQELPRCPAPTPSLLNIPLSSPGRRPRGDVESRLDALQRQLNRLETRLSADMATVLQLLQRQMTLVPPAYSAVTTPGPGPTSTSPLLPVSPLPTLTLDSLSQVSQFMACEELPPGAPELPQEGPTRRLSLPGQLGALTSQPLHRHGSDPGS
As to `CCOc1ccc(NC(=O)CCC(=O)O)cc1`, the “hERG current change (%, negative = inhibition) at 10uM” value is given as 5.48%.
Turning to `Cc1cc(C)cc(Nc2c3c(nc4ncnn24)CCC3)c1.Cl`, the “hERG current change (%, negative = inhibition) at 10uM” value was -13%.
Next, `Cc1cccc(NC(=O)CSc2nc(N)cc(N)n2)c1`: 2.95%.
To `CCc1nnc(NC(=O)c2cccnc2)s1` belongs 10.2%.
To `COCCNc1cc(-c2ccccc2)nc2cc(-c3cccc(F)c3)nn12` belongs 9.8%; to `COCCCNC(=O)CC(NS(=O)(=O)c1ccc(C)cc1)c1ccco1` (stereo not shown), 15%; to `CCc1ccc(Nc2oc(C)cc(=O)c2C(C)=O)cc1`, -0.0348%.
Turning to `CC(C)(C)C1CCc2onc(C(=O)O)c2C1` (stereo not shown), the “hERG current change (%, negative = inhibition) at 10uM” value was determined as 16.7%.
Regarding `COc1cc(/C=N/NC(=O)c2ccc(NS(=O)(=O)c3cccs3)cc2)cc(OC)c1O`, the “hERG current change (%, negative = inhibition) at 10uM” value stood at 10.5%.
To `CCN(CC)C(=O)CSc1nc(O)c(Cc2ccccc2)c(=O)n1-c1ccccc1C` belongs 2.09%; to `CCOc1ccc(N2C(=O)CC(N3CCN(c4ccc(F)cc4)CC3)C2=O)cc1` (stereo not shown), -7.42%; to `CCOCCCN1CN(S(=O)(=O)c2ccc(Cl)cc2)c2nc3ccccc3nc21`, -8.09%.
Next, `O=C1CN(C(=O)/C=C/c2ccccc2)CCN1`: 18.2%.
Regarding `Cc1ccccc1NS(=O)(=O)c1ccc(C(=O)N2CCCC(C(F)(F)F)C2)cc1` (stereo not shown), the “hERG current change (%, negative = inhibition) at 10uM” value was determined as 6.13%.
Next, `O=C(NCC(=O)N1CCCC1C(=O)O)OC1CCCCC1` (stereo not shown): -6.8%; `COCCn1c(=S)[nH]c2ncccc2c1=O`: 20.3%; `NC(=O)CC(NC(=O)Cc1ccc(Br)cc1)c1ccc(N2CCN(c3ccccn3)CC2)c([N+](=O)[O-])c1` (stereo not shown): 17.2%.
To `CCSc1ccccc1C(=O)Nc1cc(C)on1` belongs -4.62%; to `Cc1ccc(Cc2c(C)nc3nc(SCC(=O)NCCCN4CCCC4)nn3c2C)cc1`, -28.4%; to `CC(C)NC(=O)NCCCCCCS(C)=O` (stereo not shown), 9.44%.
Turning to `COc1ccccc1-n1cnc2cc(NS(=O)(=O)c3ccccc3)ccc21`, the “hERG current change (%, negative = inhibition) at 10uM” value is on record as -57.5%.
Next, `O=C(NC1CCCCC1)C1CCN(S(=O)(=O)c2cccc3cccnc23)CC1`: 0.0654%; `CCc1ccc(N(CC)C(=O)Cc2c(C(=O)O)n(C)c3ccccc23)cc1`: 19.5%.
Next, `COc1ccc(OC)c(NC(=O)CCC(=O)Nc2nnc(C(F)(F)F)s2)c1`: -0.147%; `Cc1cccn2c(=O)c3cc(C(=O)NC4CCCCCC4)sc3nc12`: 9.51%.
To `CCOC(=O)C1CCC(CNCc2ccccc2C)CC1.Cl` (stereo not shown) belongs -24.4%; to `CCC(=O)NCc1cc(-c2nn(C)c(=O)c3ccccc23)ccc1C`, -2.5%; to `O=C(Cc1ccccc1Cl)Nc1ccc(S(=O)(=O)Nc2nccs2)cc1`, 13.9%.
Turning to `Cc1cc(C)n(-c2ccc(C(=O)Nc3cccnc3Cl)cc2)n1`, the “hERG current change (%, negative = inhibition) at 10uM” value stood at 13.5%.
To `CCOc1cc(N2CCOCC2)c(OCC)cc1NC(=O)CN1C(=O)NC(Cc2ccccc2)C1=O` (stereo not shown) belongs -25.5%.
Next, `CCOC(=O)c1ccc(N2C(=O)c3cccc4c(C(=O)O)ccc(c34)C2=O)cc1`: 16.2%; `Cc1ccnc(NS(=O)(=O)c2ccc(NC(=O)/C=C/c3ccccc3)cc2)n1`: 8.71%; `Cc1nc2ccccc2n1CC(O)COCC1CC=CCC1` (stereo not shown): -20.5%.
To `CO/N=C\CC(=O)Nc1ccc(F)cc1` belongs 2.81%.
Consider `Cc1cc(N2CCCCC2)nc(N2CCCCC2)n1`, for which the “hERG current change (%, negative = inhibition) at 10uM” value is listed as -39%.
Next, `C=CCn1c(O)c(C=NCCCOc2ccc(CC)cc2)c(=O)[nH]c1=S`: 21.8%; `CC(O)CNc1nc2c(c(=O)n(Cc3ccc(Cl)c(Cl)c3)c(=O)n2C)n1C` (stereo not shown): -17.3%.
To `Clc1ccc(Cl)c2sc(N3CCCC3)nc12` belongs 8.31%; to `Cc1ccc(N2C(=O)c3ccccc3C2(O)c2ncc[nH]2)cc1` (stereo not shown), 15%; to `C=C(C)Cn1c(C2CC(=O)N(Cc3ccccc3)C2)nc2ccccc21` (stereo not shown), -30.2%.
To `COc1ccc(CN(C)C(=O)C23CC4CC(CC(C4)C2)C3)c(OC)c1` belongs -25%; to `COc1ccc(C(=O)N2CCN(c3ccccc3)CC2)cc1S(=O)(=O)N1CCCC1`, -34.5%; to `S=c1[nH]nc(CN2CCCCC2)n1-c1ccc(Cl)cc1`, 17.1%.
As for `C=CCOc1ccc2nc(NC(=O)OC)[nH]c2c1`, the “hERG current change (%, negative = inhibition) at 10uM” value is on record as -4%.
Next, `Cc1ccc(C2=NNC(C(O)C(O)C(O)CO)S2)cc1` (stereo not shown): 11.6%; `COc1ccc(N=C2SC(CC(=O)Nc3cccc(Cl)c3)C(=O)N2Cc2ccco2)cc1` (stereo not shown): 1.84%; `COc1cccc(-c2nc(CS(=O)(=O)CC(=O)Nc3cc(F)ccc3F)c(C)o2)c1`: 8.16%.
Next, `O=C(Nc1cccc(-c2cn3cccnc3n2)c1)Nc1ccccc1F`: 14.7%; `CCOC(=O)N1CCC(N(CCN(C)C)C(=S)Nc2ccc(F)c(Cl)c2)CC1`: -6.98%; `CCOC(=O)c1c(C)[nH]c(C)c1C(=O)COC(=O)CCOc1ccccc1OC`: 3.86%.
To `COCCOC(=O)c1c(C)n(C)c2ccc(OC(=O)N(C)C)cc12` belongs 0.575%; to `CNC(=O)c1cc(NC(=O)CCn2nc(-c3ccccc3)c3ccccc3c2=O)ccc1OC`, -9.1%; to `Cc1oc(-c2cccs2)nc1CS(=O)CC(=O)NCCCOC(C)C` (stereo not shown), -3.05%.
`CC(C)CCNC(=O)CN1N=C(c2ccc(Cl)cc2)CCC1=O`: the “hERG current change (%, negative = inhibition) at 10uM” value is -15.8%.
Next, `CC(=O)Nc1ccc(S(=O)(=O)NCc2nc(-c3ccccc3C)no2)cc1`: 14.3%; `C=CCn1c2ccccc2c2nnc(SCc3ccc4nonc4c3)nc21`: 0.592%; `Cc1cc(=O)n2nc(N3CCCC(C(=O)NCc4ccccc4C)C3)sc2n1` (stereo not shown): -23%.
With `Cc1ccccc1C(=O)OC(C)CN1CCN(C)CC1.Cl` (stereo not shown), the “hERG current change (%, negative = inhibition) at 10uM” value is reported as -10.7%.
